About 320 (15%) of roughly 2,100 compounds were called active. Inconclusive means that the source gave no clear call. Such entries were picked first, then a sample of the others. Calls come from the whole dose curve; as a rule, active = well fitted cell-killing curve with a large enough effect; inconclusive = small, poorly fitted or top-dose-only effect, or effect the other way; inactive = flat fitted curve, though single readings scatter. Potencies beside an inconclusive call are fits to weak or partial responses and may not hold up.
assay: Viability Counterscreen for CMV-Luciferase Assay of Inhibitors of ATXN expression; details: HEK-293 CMV-luciferase cells viability, protease fluorescence, 24 h; activity change, negative = cytotoxicity: at the top concentration; note: nearly all actives have a fitted effect of over 55% in size
Outline: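 HEK-293 cells stably expressing CMV-luciferase, treated 24 hr at 37 °C with compounds (several concentrations). Viability by Gly-Phe-AFC fluorescence (25 uM final, 30 min); reporter by SteadyGlo luminescence after 5 min.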
% is set by controls: 0 for no effect and ±100 for the full control effect; potency is the fitted concentration of half-maximal effect; tags give direction and shape of the fitted curve.

| SMILES | Potency | activity change, negative = cytotoxicity |
| --- | --- | --- |
| COc1ccc(C2CC(c3cccc(Br)c3)=NN2c2ccc(S(N)(=O)=O)cc2)cc1 (stereo not drawn) | inconclusive: 28.2 µM [rising, partial curve] | – |
| COc1cccc(-c2sc3ccccc3c2-c2ccc(OCCN3CCCC3)cc2)c1 | – | inactive: -4.65% |
| Cc1cc(C)n(-c2nc(Nc3ccccc3C(F)(F)F)nc(-n3nc(C)cc3C)n2)n1 | inconclusive: 3.16 µM [cytotoxic, partial curve] | – |
| COc1cc(/C=C(/C#N)C(=O)NCCc2c[nH]c3ccccc23)ccc1OCc1ccccc1F | inconclusive: 25.1 µM [cytotoxic, partial curve] | – |
| CCCOCc1ccc(O)c2ncccc12 | – | inactive: -7.03% [at 57.5 µM] |
| Cc1ccc(Cl)cc1-c1ccc(C=Nc2ccc(N3CCOCC3)cc2)o1 | – | inactive: -12.6% [at 57.5 µM] |
| CC(C)CC(=O)NC(c1cccs1)c1ccc2cccnc2c1O (stereo not drawn) | inconclusive: 1.41 µM [cytotoxic, partial curve] | – |
| COc1ccc(-c2sc3ccc(OC)cc3c2-c2ccc(O)cc2)cc1 | – | inactive: -12.9% |
| COc1ccccc1NCC(=O)N/N=C/c1c(O)ccc2ccccc12 | inconclusive: 39.8 µM [rising, single point] | – |
| CC(=O)Nc1cccc(-c2ccnc3c2CC(C)(C(=O)Nc2cccc(Oc4ccccc4)c2)O3)c1 (stereo not drawn) | inconclusive: 17.8 µM [cytotoxic, single point] | – |
| O=C(/C=C/c1ccccc1)c1cc(Br)ccc(=O)c1O | inconclusive: 39.8 µM [cytotoxic, single point] | – |
| CCN(CC)CCNC(=O)CCc1c(C)nc2c(c(C)nn2-c2ccc(C)cc2)c1C | active: 3.55 µM | – |
| C=CCOC(=O)C1=C[C@@H](c2ccc3c(c2)OCO3)C[C@@H](OCCCCO)O1 | – | inactive: -10.7% [at 57.5 µM] |
| CC1CCN(Cc2c(C(=O)N/N=C/c3ccccc3O)nnn2-c2nonc2N)CC1 | inconclusive: 1.41 µM [cytotoxic, full curve] | – |
| COc1cccc(CNCCc2c[nH]c3ccccc23)c1OCc1ccc(F)cc1 | – | inactive: -24.6% |
| O=C(NNC(=O)c1cnccn1)c1ccc(Cl)c(Cl)c1 | active: 22.4 µM | – |
| O=C(Nc1nc(-c2ccccn2)cs1)c1ccco1 | inconclusive: 7.94 µM [cytotoxic, full curve] | – |
| CCCc1nc2c(c(=O)c3ccccc3n2C)c(=O)n1C1CCCCCC1 | active: 20 µM | – |
| Cc1ccc2c(CC(=O)NNC(=O)c3ccccc3O)coc2c1 | – | inactive: -9.69% |
| COc1ccc(CCC(=O)Nc2c(-c3ccc(N(C)C)cc3)[nH][nH]c2=O)cc1 | inconclusive: 15.8 µM [cytotoxic, partial curve, poor fit] | – |
| CCOCCn1ccc2c(OCC(=O)Nc3ccc(OC)c(OC)c3)cccc2c1=O | – | inactive: -1.79% |
| O=C(Nc1nc(-c2ccccn2)cs1)c1ccccc1-n1cnnn1 | active: 7.94 µM | – |
| C/C(=N\NC(=O)c1cccc2ccccc12)c1ccccn1 | active: 1.41 µM | – |
| CS/C(=C\[N+](=O)[O-])Nc1ccc(OC(F)(F)F)cc1 | inconclusive: 14.1 µM [cytotoxic, partial curve] | – |

| SMILES | Potency | activity change, negative = cytotoxicity |
| --- | --- | --- |
| CN(C)c1cc[n+](CC(=O)c2ccc(-c3ccccc3)cc2)cc1 | – | inactive: -28.5% |
| COc1ccc(C(=O)/C=C/c2cccc(OCc3ccccc3)c2)cc1CSCC(=O)O | inconclusive: 7.08 µM [cytotoxic, single point] | – |
| CCN1CCN(C(c2ccc(C(F)(F)F)cc2)c2ccc3cccnc3c2O)CC1 (stereo not drawn) | inconclusive: 3.55 µM [cytotoxic, single point] | – |
| CCc1nc2c(OCc3ccc(Cl)cc3Cl)cccn2c1N(C=O)Cc1ccc(OC)cc1 | – | inactive: -29.4% |
| O=C(CCc1ccccc1)NNC(=O)c1cc(Cl)ccc1O | – | inactive: -25.6% |
| O=C(CSc1nnnn1-c1ccccc1)Nc1nsc(-c2ccccc2)n1 | – | inactive: 6.34% [at 57.5 µM] |
| CN1CCN(c2nc(-c3ccccn3)nc3ccccc23)CC1 | – | inactive: -17.1% [at 57.5 µM] |
| CS(=O)(=O)N1CCc2cc(-c3csc(NC(=O)Cc4cccs4)n3)ccc21 | inconclusive: 3.16 µM [cytotoxic, single point] | – |
| Cc1cc(-c2ccccc2)n(-c2cc(N/N=C/c3ccccc3O)ncn2)n1 | inconclusive: 2.24 µM [cytotoxic, full curve, poor fit] | – |
| O=C(Nc1nc(NC(=O)c2ccco2)n(-c2ccccc2)n1)c1ccccc1 | active: 12.6 µM | – |
| COc1ccc(/C=C2\SC(=S)N(CCCC(=O)Nc3ccccn3)C2=O)cc1OC | inconclusive: 12.6 µM [cytotoxic, partial curve] | – |
| Cc1c(-c2cccc(Cl)c2)nc2ccccc2c1C(=O)OC/C(O)=C(\C#N)c1nc2ccccc2[nH]1 | inconclusive: 17.8 µM [cytotoxic, partial curve, poor fit] | – |
| O=C(N/N=C/c1ccccc1O)C1CC(=O)N(c2ccc(F)cc2)C1 (stereo not drawn) | inconclusive: 0.562 µM [cytotoxic, partial curve, poor fit] | – |
| Oc1ccc(Cl)cc1Sc1cc(Cl)ccc1O | active: 20 µM | – |
| Cc1cc(C)nc(N/N=C2/CCCC/C2=C\c2ccccc2)n1 | inconclusive: 7.94 µM [cytotoxic, full curve] | – |
| COC(=O)c1ccc2c(c1)C(C)(C)C(/C=C/c1ccc(OC)c(OC)c1OC)=[N+]2C | inconclusive: 3.55 µM [cytotoxic, single point] | – |
| CCCn1ncc(CN2CCC(C(=O)Nc3cccc(-c4cccc(F)c4)c3)CC2)c1C | – | inactive: -27.1% [at 57.5 µM] |
| Cn1c(NCCN2CCCC2)nc2cc(-c3ccsc3)sc2c1=O | inconclusive: 15.8 µM [cytotoxic, partial curve] | – |
| COc1ccccc1C(=O)NNC1=C(C(=O)C(F)(F)F)CCC1 | inconclusive: 2.24 µM [cytotoxic, partial curve] | – |
| Cc1ccc(C(C)C)c(OCc2ccc(C(=O)N/N=C/c3cccc(O)c3O)cc2)c1 | active: 3.98 µM | – |
| NS(=O)(=O)c1ccc(Nc2nc(-c3ccc(F)cc3)cs2)cc1 | – | inactive: -11.6% |
| CCOC(=O)C(CC)(CC)C(=O)/C=C/c1ccc(OC)cc1 | – | inactive: 2.96% [at 57.5 µM] |
| OC1(c2ccc(Cl)cc2)CCN(Cc2c[nH]c3ccccc23)CC1 | – | inactive: -9.54% |
| CCOc1cc(/C=C(/C#N)c2nc3ccccc3[nH]2)ccc1Oc1ccc([N+](=O)[O-])cn1 | inconclusive: 39.8 µM [rising, single point] | – |
